From PubChem BioAssay (Tox21)
Several values for one entry are separate records, joined by “and”; a condition that tells them apart may be missing. Identical values can stand only once. This list was built around the results that the source calls inconclusive (neither active nor inactive); the mix of calls is not that of the screen. Potencies beside an inconclusive call are fits to weak or partial responses and may not hold up. Activity calls are given as the source filed them. The call rests on the fitted dose curve; in most records, active means well fitted cell-killing curve with a large enough effect in the repeat runs; inconclusive means weak or mixed curves, or effect the other way; inactive means flat fitted curve, though single readings scatter.

assay: qHTS assay to identify small molecule that activate the aryl hydrocarbon receptor (AhR) signaling pathway - cell viability counter screen (AID 743086); conditions: HepG2-AhR-luc viability, CellTiter-Fluor, 24 h; series mostly up to 70.3 µM; viability change, negative = cytotoxic: at the top concentration; further: nearly all actives have a fitted effect of over 45% in size;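 on viability change, negative = cytotoxic: HepG2 liver cells carrying the AhR DRE luciferase reporter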
Source text: U.S. Tox21 Program National Center for Advancing Translational Sciences [NCATS] NIH Chemical Genomics Center [NCGC] U.S. Environmental Protection Agency [EPA] National Institutes of Environmental Health Sciences [NIEHS] National Toxicology Program [NTP] U.S. Food and Drug Administration [FDA] Tox21 Assay overview: The Aryl hydrocarbon Receptor (AhR), a member of the family of basic helix-loop-helix transcription factors, is crucial to adaptive responses to environmental changes. AhR mediates cellular responses to environmental pollutants such as aromatic hydrocarbons through induction of phase I and II enzymes but also interacts with other nuclear receptor signaling pathways A cell based HepG2-AhR-luc assay (HG2L7.5c1 cell line, developed by Dr. Michael S. Denison, University of California at Davis) was used to assess the activation of AhR. HepG2 (human hepatocellular carcinoma) cells were stably transfected with an Ah receptor-responsive firefly luciferase reporter gene plasmid containing 20 dioxin responsive elements and luciferase reporter gene. Increased luciferase activity can be used to identify the compounds that induce AhR activation. The cytotoxicity of the compounds screened against the HepG2-AhR-luc cell line was tested in parallel by measuring the cell viability using CellTiter-Fluor assay in the same wells.
Tox21 Assay Protocol Summary: 4000 cells in 5 uL/well were dispensed into white wall/solid bottom 1536-well plates using a Multidrop Combi (Thermo Fisher Scientific Inc., Waltham, MA) dispenser. After the assay plates were incubated at 37C for 5 h, 23 nL of compound or DMSO vehicle was transferred to the assay plates by a pintool station (Kalypsys, San Diego, CA). The plates were incubated at 37C for 24 hr. For cell viability measurement, 1 ul/well of CellTiter-Fluor reagent (Promega, Madison, WI) was added into the assay plates using a Flying Reagent Dispenser (FRD) (Aurora Discovery, CA),and then the assay plates were incubated at 37C for 30 min. The fluorescence intensity in the plates was measured using a ViewLux plate reader (PerkinElmer, Shelton, CT), followed by the addition of 4 uL of ONE-Glo Luciferase Assay reagent (Promega) using an FRD (Aurora Discovery). After the assay plates were incubated at room temperature for 30 min, luminescence intensity was measured using a ViewLux plate reader (Perkin Elmer).
On the % scale 0 is the no-effect control and ±100 the full control effect; potency means the concentration at half of the fitted maximal effect; tags describe the fitted curve by direction and shape.

Compound	viability change, negative = cytotoxic	Potency
CC(C)(O)c1ccc(CNC(=O)c2cccnc2Oc2ccc3nonc3c2)cc1	inactive: -11.4%	–
O=C1c2ccccc2C(=O)N1CCc1noc(-c2ccc(CN3CCCCCC3)s2)n1	–	inconclusive: 44.5 µM [falling, partial curve, poor fit]
CCN(Cc1cccc(S(=O)(=O)O)c1)c1ccc(C(=C2C=CC(=[N+](CC)Cc3cccc(S(=O)(=O)O)c3)C=C2)c2ccccc2S(=O)(=O)[O-])cc1	–	active: 27.4 µM
CC(=O)N/N=C/c1ccc([N+](=O)[O-])o1	–	inconclusive: 33.5 µM [falling, single point]
OC(CCN1CCCC1)(c1ccccc1)C1CCCCC1 (stereo not given)	inactive: 1.16% [at 32.5 µM]	–
Cc1c(O)cccc1C(=O)N[C@@H](CSc1ccccc1)[C@H](O)CN1C[C@H]2CCCC[C@H]2C[C@H]1C(=O)NC(C)(C)C	–	active: 13.3 µM and active: 11.9 µM
CCCCCCCCCCCCCCCC	inactive: 1.67%	–
OCC(O)CN1CCN(c2ccccc2)CC1 (stereo not given)	–	inconclusive: 13.3 µM [rising, partial curve, poor fit]
OCCN1CCN(CCCN2c3ccccc3Sc3ccc(Cl)cc32)CC1	–	inconclusive: 11.4 µM [falling, partial curve]
C/C=C(/C(=C/C)c1ccc(O)cc1)c1ccc(O)cc1	–	inconclusive: 14.3 µM [falling, partial curve, poor fit]
CC(=O)O[C@]1(C(C)=O)CC[C@H]2[C@@H]3C=C(Cl)C4=CC(=O)CC[C@]4(C)[C@H]3CC[C@@]21C	–	inactive
COc1cc2[nH]c(=O)[nH]c(=O)c2cc1OC	inactive: 9.31% [at 32.5 µM]	–
CC(=O)Oc1ccc(C(=C2CCCCC2)c2ccc(OC(C)=O)cc2)cc1	inactive: -0.968%	–
Cc1cccc(N(C)C(=S)Oc2ccc3c(c2)CCC3)c1	–	inconclusive: 33.5 µM [falling, partial curve, poor fit]
CC(CO)CO	inactive: 3.14% [at 95 µM]	–
Brc1cc(Br)c(Oc2cc(Br)c(Br)cc2Br)cc1Br	–	inconclusive: 33.5 µM [falling, single point]
CN1C[C@H](C(=O)N[C@]2(C)O[C@@]3(O)[C@@H]4CCCN4C(=O)[C@H](Cc4ccccc4)N3C2=O)C[C@@H]2c3cccc4[nH]cc(c34)C[C@H]21	–	inconclusive: 33.5 µM [falling, partial curve, poor fit]
CC(C)Cc1ccc(C(C)C(=O)O)cc1 (stereo not given)	–	inconclusive: 13.3 µM [rising, partial curve]
CCC(=O)O[C@H]1[C@H](O[C@@H]2[C@@H](C)[C@H](O[C@H]3C[C@@](C)(OC)[C@@H](O)[C@H](C)O3)[C@@H](C)C(=O)O[C@H](CC)[C@@](C)(O)[C@H](O)[C@@H](C)C(=O)[C@H](C)C[C@@]2(C)O)O[C@H](C)C[C@@H]1N(C)C	–	inconclusive: 11.9 µM [falling, partial curve] and inconclusive: 36.1 µM [falling, partial curve]
Oc1cc2c(cc1O)[C@H]1c3ccc(O)c(O)c3OC[C@@]1(O)C2	–	active: 27.6 µM

Compound	viability change, negative = cytotoxic	Potency
CN1C(=O)N(c2ccccc2Br)Cc2cnc(Nc3ccc4c(c3)OCC(CO)O4)nc21 (stereo not given)	–	inconclusive: 54.5 µM [falling, partial curve]
O=C(O)CCNC(=O)c1ccccc1	inactive: -12.7%	–
CC(=O)NC1(c2cccc(F)c2)CCN(CC[C@@]2(c3ccc(Cl)c(Cl)c3)CN(c3ccccc3)C(=O)CO2)CC1	–	active: 43.4 µM
Nc1ccc(Oc2ccc(N)c(N)c2)cc1	–	inconclusive: 68.6 µM
Nc1ccc([N+](=O)[O-])cc1O	–	active: 38.6 µM
CCC(C)c1cc([N+](=O)[O-])cc([N+](=O)[O-])c1OC(=O)OC(C)C (stereo not given)	–	active: 43.3 µM
Nc1ccc(N)c(Cl)c1	–	inconclusive: 68.6 µM [falling, single point]
c1ccc(C(O[C@@H]2CCCN(CCc3ccc4c(c3)OCO4)C2)c2ccccc2)cc1	inactive: -5.24%	–
C=CC(=O)OCCCCCCCC(C)C	–	inactive
COc1ccc(C(=O)c2ccccc2)c(O)c1	–	inactive
CC(C)c1ccc2c(c1)CC[C@H]1[C@](C)(CN)CCC[C@]21C	–	active: 54.5 µM
O=C(Nc1cccc(Cl)c1)OCC#CCCl	–	active: 27.3 µM
C1CCC(C(CC2CCCCN2)C2CCCCC2)CC1 (stereo not given)	–	active: 18.8 µM
CN1CC[C@H](c2c(O)cc(O)c3c(=O)cc(-c4ccccc4Cl)oc23)[C@H](O)C1	–	inconclusive: 6.68 µM [falling, partial curve]
C=C[C@H]1CN2CC[C@H]1C[C@@H]2[C@@H](O)c1ccnc2ccc(OC)cc12	–	inconclusive: 75.7 µM [falling, single point]
Cc1[nH]nc2c1N=C(c1ccccc1Cl)c1cc([N+](=O)[O-])ccc1N2	–	active: 48.6 µM
CC[C@H]1CN2CCc3cc(OC)c(OC)cc3[C@@H]2C[C@@H]1C[C@H]1NCCc2cc(OC)c(OC)cc21	–	inconclusive: 133 nM [falling, full curve] and inconclusive: 122 nM [falling, full curve]
CCN(CC)CCCN(c1ccccc1)C1Cc2ccccc2C1	–	active: 13.3 µM
CCC(=O)/C=C/C1C(C)=CCCC1(C)C (stereo not given)	–	inactive
Nc1ccc(O)c([N+](=O)[O-])c1	–	inconclusive: 34.2 µM
